Experimental data from publication PMC4336329 (PLoS ONE, 2015).
The whole screen tested about 310,000 compounds, of which about 2,200 (0.71%) showed an effect of 50% or more. Effects have a minus sign here. Some of the results follow.

These molecules were tested against human ether-à-go-go-related gene (hERG) potassium channel (human, UniProt Q12809) (assay: primary screen, population patch clamp on CHO cells stably expressing hERG).
Chain of human ether-à-go-go-related gene (hERG) potassium channel (Q12809 whole entry, looked up): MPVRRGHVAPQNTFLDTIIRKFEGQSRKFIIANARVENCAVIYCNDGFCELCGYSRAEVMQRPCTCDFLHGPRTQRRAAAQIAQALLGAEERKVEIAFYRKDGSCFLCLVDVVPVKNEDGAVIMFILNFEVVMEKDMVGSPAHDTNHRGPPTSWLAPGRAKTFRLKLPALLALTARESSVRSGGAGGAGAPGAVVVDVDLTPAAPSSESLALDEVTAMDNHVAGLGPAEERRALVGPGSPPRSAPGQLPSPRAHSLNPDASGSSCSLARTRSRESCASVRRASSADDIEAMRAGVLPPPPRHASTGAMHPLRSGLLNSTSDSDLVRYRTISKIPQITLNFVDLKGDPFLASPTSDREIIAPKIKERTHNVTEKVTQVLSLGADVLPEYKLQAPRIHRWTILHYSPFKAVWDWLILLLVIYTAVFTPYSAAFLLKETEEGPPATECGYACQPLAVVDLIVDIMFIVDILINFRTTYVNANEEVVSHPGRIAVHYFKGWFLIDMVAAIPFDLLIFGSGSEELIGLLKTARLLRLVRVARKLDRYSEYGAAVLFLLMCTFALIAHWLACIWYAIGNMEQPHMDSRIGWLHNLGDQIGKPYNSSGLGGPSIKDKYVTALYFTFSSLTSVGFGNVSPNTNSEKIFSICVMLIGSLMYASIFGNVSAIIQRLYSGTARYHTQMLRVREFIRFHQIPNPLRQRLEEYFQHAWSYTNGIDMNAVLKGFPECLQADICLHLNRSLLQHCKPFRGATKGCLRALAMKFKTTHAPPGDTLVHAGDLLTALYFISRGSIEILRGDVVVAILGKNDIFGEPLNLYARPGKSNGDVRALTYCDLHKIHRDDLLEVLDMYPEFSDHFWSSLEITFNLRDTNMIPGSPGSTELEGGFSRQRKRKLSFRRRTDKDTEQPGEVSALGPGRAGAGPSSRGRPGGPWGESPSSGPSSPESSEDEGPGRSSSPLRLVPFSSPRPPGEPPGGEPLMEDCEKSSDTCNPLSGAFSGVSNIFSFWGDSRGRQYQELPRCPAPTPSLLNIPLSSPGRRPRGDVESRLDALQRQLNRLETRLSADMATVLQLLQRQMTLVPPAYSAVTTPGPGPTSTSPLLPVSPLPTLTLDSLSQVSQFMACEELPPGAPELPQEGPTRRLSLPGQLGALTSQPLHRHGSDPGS

SMILES | hERG current change (%, negative = inhibition) at 1uM [%]
Cc1nn(C(C)C(=O)c2cccc(Cl)c2)c(C)c1[N+](=O)[O-] (stereo not shown) | 7
O=C(NNC(=S)Nc1ccccc1)c1ccco1 | -9.43
Cc1ccc(N(C(=O)c2cccs2)C2C=CS(=O)(=O)C2)cc1 (stereo not shown) | 1.18
CCOC12CC(C)(C)CC(C)(CC3=C1C(=O)CC(C)(C)C3)C2 (stereo not shown) | 8.46
COc1ccc(CNC(=O)[C@@H](NC(=O)C2CCN(C(=O)[C@@H](N)CC(C)C)CC2)C(C)C)cc1 | 17.5
O=C1CN(C(=O)c2ccccc2[N+](=O)[O-])C(c2ccccc2)c2cc(Br)ccc2N1 (stereo not shown) | -16
CCn1c(SCC(=O)N2CC(C)OC(C)C2)nc2c([nH]c3ccccc32)c1=O (stereo not shown) | 11.4
O=C(CC[NH+]1CCCCC1)c1ccccc1.[Cl-] | 1.28
COc1ccc(CCCc2n[nH]c(=S)n2C)cc1C | 11.8
COc1cc(NC(C)CCc2ccccc2)cc(OC)c1OC (stereo not shown) | 18
CCc1noc(C)c1C(=O)N(C)CC(=O)Nc1ccc(Cl)c(Cl)c1 | 9.03
Cc1cc(C(=O)COc2ccccc2[N+](=O)[O-])c(C)n1-c1cccc(S(=O)(=O)N2CCOCC2)c1 | 2.81
Cc1ccc(N(C)S(=O)(=O)c2cc(-c3cnc(C4CC4)o3)ccc2C)cc1 | 12.9
CCOc1cc(/C=C2/C(=O)ON=C2C)ccc1OCc1ccccc1F | 16.4
O=C(O)c1ccccc1-c1ccccc1C(=O)Nc1nc2ccccc2s1 | 14.9
Cc1ccc(S(=O)(=O)N2CCCCC2CCNC(=O)C(=O)NCCc2ccco2)cc1 (stereo not shown) | 10.5
Cc1ccc(CNC(=O)C23CN(Cc4ccccc4)CC2C(c2ccc([N+](=O)[O-])cc2)=NO3)cc1 (stereo not shown) | -12.1
CCOc1ccccc1NC(=S)N1CCN(c2ccc(OC)cc2)CC1 | 14.9
CN(CC(=O)Nc1ccc(Cl)cc1)C(=O)c1cccc(S(=O)(=O)N2CCN(Cc3ccccc3)CC2)c1 | 12.9
Cc1coc2cc3oc(=O)c(CC(=O)N4C[C@H]5C[C@@H](C4)c4cccc(=O)n4C5)c(C)c3cc12 | 4
CC(C)Nc1nnc(SCC(=O)c2c[nH]c3ccccc23)s1 | 8.65
COC(=O)C[C@H]1c2cc(F)ccc2S(=O)(=O)N1Cc1ccccc1OC | 10.4
Cn1c(=O)cc(OCCCC(=O)N2CCC3(CC2)OCCO3)c2ccccc21 | 11
Cc1ccc(NC(=O)CNc2ccc(OC(C)C)cc2)cc1 | 12.5
Cc1cc(NC(=O)CSc2ncn(-c3ccccc3)n2)no1 | 13
O=C(CSc1nnc(-c2cccc(S(=O)(=O)N3CCCCC3)c2)o1)NCCC1=CCCCC1 | 10.7
CCCNC(=O)CCn1c(-c2ccc(C)cc2)cc(C(=O)OCC)c1C | 1.63
COCCn1c(SCC(=O)NCc2ccc3c(c2)OCO3)nnc1C(C)C | 15.9

SMILES | hERG current change (%, negative = inhibition) at 1uM [%]
C=CCn1c(-c2ccccc2)nc(=S)c2c1CCCC2 | 13.6
O=C(OCc1cc(Cl)ccc1OC(F)F)c1ccc([N+](=O)[O-])o1 | 19.8
O=C(c1cc2nc(C3CC3)cc(C(F)F)n2n1)N1CCOCC1 | 10.9
O=C(c1ccc(F)cc1)C1CCN(C(=O)c2c(F)cccc2F)CC1 | 10.9
O=C(Nc1cccc(Cl)c1)c1ccc(F)c(S(=O)(=O)NCc2ccc3c(c2)OCO3)c1 | 10.5
Cc1cc(NC(=O)COc2ccc3oc4ccccc4c3c2)no1 | 2.56
O=C(CN(CC1CCCO1)C(=O)CNS(=O)(=O)c1ccccc1)NCCc1ccccc1 (stereo not shown) | 14.7
CCc1cc2c(=O)c(-c3nc4ccccc4[nH]3)coc2c(CN2CCCCC2C)c1O (stereo not shown) | 6.79
Cc1cccc(OCC(O)CNC(=O)c2ccccc2C(=O)O)c1 (stereo not shown) | 5.52
Cc1ccc(-c2nc3ccccc3[nH]2)cc1NC(=O)/C=C/c1ccco1 | 9.04
CCC(=O)OCn1nnc2ccccc2c1=O | 16.2
COc1cc2c(cc1OC)C(c1ccc(OC)c(OC)c1OC)CC(=O)N2 (stereo not shown) | 17.3
CCOc1ncccc1C(=O)OCC(=O)Nc1ccc(C(N)=O)cc1 | 15.9
Cc1oc(S(=O)(=O)N2CCOCC2)cc1C(=O)Nc1ccc(F)cc1 | -0.562
Cc1cccc(C2c3[nH]c4ccccc4c3CCN2C(=O)c2ccc(=O)[nH]c2)n1 (stereo not shown) | 23.7
O=c1[nH]c(=S)[nH]c2c1C(c1cc([N+](=O)[O-])c(N3CCOCC3)cc1N1CCOCC1)O2 (stereo not shown) | 13.9
O=C(NCCc1ccccc1)C1CC(=O)N(C2CCCCC2)C1 (stereo not shown) | 14.8
COc1ccc(C2C(C(=O)N3CCN(c4ccccc4)CC3)c3ccccc3C(=O)N2C)cc1 (stereo not shown) | -1.14
CCCN(CCC)CC(C)(C)NS(=O)(=O)c1ccc(Cl)cc1 | 3.59
COc1ccccc1-c1nnc(SCC(=O)N2CCCC2)o1 | 9.34
Cc1ccc(S(=O)(=O)NCCC(c2ccccc2)c2ccccc2)cc1C(=O)O | 7.67
COc1ccc(Oc2ccc(N/C=C3/CCCC3=O)cc2)cc1 | 0.127
Cc1cc(C)n2nc(CC(=O)NC3CCCCCC3)nc2n1 | 11.5
CC(C)c1cc(CNC(=O)CCc2nnc(CCCc3ccccc3)o2)on1 | 9.8
N#CCC(=O)Nc1ccc(C(=O)OCC(=O)N(Cc2ccccc2)C2CCS(=O)(=O)C2)cc1 (stereo not shown) | 16
Cc1cc(C(=O)N2CCCC(CNS(=O)(=O)c3cccs3)C2)nn1C (stereo not shown) | 2.28
O=C(CN1C(=O)C(=O)N(C2CCCC2)C1=O)Nc1ccc(N2CCOCC2)cc1 | 7.71
